# From the supplement of paper PMC8728848
# Some of the results follow.
# Assays:
# Test in all cases: glycan array binding signal (z-score within array); higher = stronger binding
# Conditions in all cases: glycan notation: IUPAC condensed, linker removed
# [1] = target: GalNAc(b1-4)GlcNAc(b1-2)Man
# Outline: (§1)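 Columns mapping to the same glycan were averaged after glycan names were converted to IUPAC-condensed notation. The data come from 3228 arrays in the Consortium for Functional Glycomics database, limited to those with an available protein sequence. Binding is reported as a within-array Z-score averaged across arrays of one protein sequence and across linkers.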
# [2] = target: GalNAc(b1-4)GlcNAc(b1-2)Man(a1-3)[GalNAc(b1-4)GlcNAc(b1-2)Man(a1-6)]Man(b1-4)GlcNAc(b1-4)GlcNAc
# Outline: as §1
# [3] = target: GalNAc(b1-4)GlcNAc(b1-3)GalNAc(b1-4)GlcNAc
# Outline: as §1
# [4] = target: GalNAc(b1-4)GlcNAc6S
# Outline: as §1
# [5] = target: GalNAc(b1-6)GalNAc
# Outline: as §1
# [6] = target: GalNAc3S(b1-4)GlcNAc
# Outline: as §1
# [7] = target: GalNAc3S(b1-4)GlcNAc3S
# Outline: as §1
# [8] = target: GalNAc3S(b1-4)[Fuc(a1-3)]GlcNAc
# Outline: as §1
# [9] = target: GalNAc4S6S(b1-4)GlcNAc
# Outline: as §1
# [10] = target: GalNAc6S(b1-4)GlcNAc
# Outline: as §1
# [11] = target: Glc(a1-4)Glc
# Outline: as §1
# [12] = target: Glc(a1-4)Glc(a1-4)Glc(a1-4)Glc
# Outline: as §1
# [13] = target: Glc(a1-6)Glc(a1-6)Glc
# Outline: as §1
# [14] = target: Glc(a1-6)Glc(a1-6)Glc(a1-6)Glc
# Outline: as §1
# [15] = target: Glc(b1-4)Glc
# Outline: as §1
# [16] = target: Glc(b1-6)Glc
# Outline: as §1
# [17] = target: GlcA(b1-3)Gal
# Outline: as §1
# [18] = target: GlcA(b1-3)GlcNAc
# Outline: as §1
# [19] = target: GlcA(b1-6)Gal
# Outline: as §1
# [20] = target: GlcA3S(b1-3)Gal(b1-4)GlcNAc(b1-2)Man
# Outline: as §1
# [21] = target: GlcA3S(b1-3)Gal(b1-4)GlcNAc(b1-3)Gal(b1-4)Glc
# Outline: as §1
# [22] = target: GlcNAc(a1-3)Gal(b1-4)GlcNAc
# Outline: as §1
# [23] = target: GlcNAc(a1-4)Gal(b1-3)GlcNAc
# Outline: as §1
# [24] = target: GlcNAc(a1-4)Gal(b1-4)GalNAc
# Outline: as §1
# [25] = target: GlcNAc(a1-4)Gal(b1-4)GlcNAc
# Outline: as §1
# [26] = target: GlcNAc(a1-4)Gal(b1-4)GlcNAc(b1-3)Gal(b1-4)Glc
# Outline: as §1
# [27] = target: GlcNAc(a1-4)Gal(b1-4)GlcNAc(b1-3)Gal(b1-4)GlcNAc
# Outline: as §1
# [28] = target: GlcNAc(a1-4)Gal(b1-4)GlcNAc(b1-3)Gal(b1-4)GlcNAc(b1-3)Gal(b1-4)GlcNAc
# Outline: as §1
# [29] = target: GlcNAc(a1-4)Gal(b1-4)GlcNAc(b1-3)Gal(b1-4)[Fuc(a1-3)]GlcNAc(b1-3)Gal(b1-4)[Fuc(a1-3)]GlcNAc
# Outline: as §1
# [30] = target: GlcNAc(a1-6)Gal(b1-4)GlcNAc
# Outline: as §1
# [31] = target: GlcNAc(b1-2)Gal(b1-3)GalNAc
# Outline: as §1
# [32] = target: GlcNAc(b1-2)Man(a1-3)[GlcNAc(b1-2)Man(a1-6)]Man(b1-4)GlcNAc(b1-4)GlcNAc
# Outline: as §1
# [33] = target: GlcNAc(b1-2)Man(a1-3)[GlcNAc(b1-2)Man(a1-6)]Man(b1-4)GlcNAc(b1-4)[Fuc(a1-6)]GlcNAc
# Outline: as §1
# [34] = target: GlcNAc(b1-2)Man(a1-3)[GlcNAc(b1-4)][GlcNAc(b1-2)Man(a1-6)]Man(b1-4)GlcNAc(b1-4)GlcNAc
# Outline: as §1
# [35] = target: GlcNAc(b1-2)Man(a1-3)[GlcNAc(b1-4)][GlcNAc(b1-2)Man(a1-6)]Man(b1-4)GlcNAc(b1-4)[Fuc(a1-6)]GlcNAc
# Outline: as §1
# [36] = target: GlcNAc(b1-2)[GlcNAc(b1-4)]Man(a1-3)[GlcNAc(b1-2)Man(a1-6)]Man(b1-4)GlcNAc(b1-4)GlcNAc
# Outline: as §1
# [37] = target: GlcNAc(b1-2)[GlcNAc(b1-4)]Man(a1-3)[GlcNAc(b1-4)][GlcNAc(b1-2)Man(a1-6)]Man(b1-4)GlcNAc(b1-4)GlcNAc
# Outline: as §1
# [38] = target: GlcNAc(b1-2)[GlcNAc(b1-4)]Man(a1-3)[GlcNAc(b1-4)][GlcNAc(b1-2)[GlcNAc(b1-6)]Man(a1-6)]Man(b1-4)GlcNAc(b1-4)GlcNAc
# Outline: as §1
# [39] = target: GlcNAc(b1-2)[GlcNAc(b1-4)]Man(a1-3)[GlcNAc(b1-4)][GlcNAc(b1-2)[GlcNAc(b1-6)]Man(a1-6)]Man(b1-4)GlcNAc(b1-4)[Fuc(a1-6)]GlcNAc
# Outline: as §1
# [40] = target: GlcNAc(b1-2)[GlcNAc(b1-6)]Man(a1-6)[GlcNAc(b1-2)Man(a1-3)]Man(b1-4)GlcNAc(b1-4)GlcNAc
# Outline: as §1
# [41] = target: GlcNAc(b1-2)[GlcNAc(b1-6)]Man(a1-6)[GlcNAc(b1-2)Man(a1-3)]Man(b1-4)GlcNAc(b1-4)[Fuc(a1-6)]GlcNAc
# Outline: as §1
# [42] = target: GlcNAc(b1-2)[GlcNAc(b1-6)]Man(a1-6)[GlcNAc(b1-4)][GlcNAc(b1-2)Man(a1-3)]Man(b1-4)GlcNAc(b1-4)GlcNAc
# Outline: as §1
# [43] = target: GlcNAc(b1-3)Fuc
# Outline: as §1
# [44] = target: GlcNAc(b1-3)Gal
# Outline: as §1
# [45] = target: GlcNAc(b1-3)Gal(b1-3)GalNAc
# Outline: as §1
binder,measurement,setting,value
rCnSL-A (Clitocybe nebularis) (protein) VNPNLPGPNDVFVGFRGTNNIVGAIYEKDGIKDTPLNNGADAEMGPGSYITDGLFTARIFASGSAGNNPGTTATVCKIYASGVQWRGAPKGYIPVAYFGNGPTAEQRRQTYLRTLGLPGTAIRFGNLNTNPGQGPTAPRQMVVPPGPLRSLLKASCFPAADTRLPQTLHYFEKRVDWNIITAADSQTWGH,glycan array binding signal (z-score),[1],0.402
same,glycan array binding signal (z-score),[2],0.978
same,glycan array binding signal (z-score),[3],0.535
same,glycan array binding signal (z-score),[4],-0.266
same,glycan array binding signal (z-score),[5],-0.234
same,glycan array binding signal (z-score),[6],-0.247
same,glycan array binding signal (z-score),[7],-0.312
same,glycan array binding signal (z-score),[8],-0.302
same,glycan array binding signal (z-score),[9],-0.268
same,glycan array binding signal (z-score),[10],-0.236
same,glycan array binding signal (z-score),[11],-0.223
same,glycan array binding signal (z-score),[12],-0.147
same,glycan array binding signal (z-score),[13],-0.18
same,glycan array binding signal (z-score),[14],-0.208
same,glycan array binding signal (z-score),[15],-0.221
same,glycan array binding signal (z-score),[16],-0.293
same,glycan array binding signal (z-score),[17],-0.323
same,glycan array binding signal (z-score),[18],-0.176
same,glycan array binding signal (z-score),[19],2.28
same,glycan array binding signal (z-score),[20],-0.316
same,glycan array binding signal (z-score),[21],-0.285
same,glycan array binding signal (z-score),[22],-0.253
same,glycan array binding signal (z-score),[23],-0.198
same,glycan array binding signal (z-score),[24],-0.222
same,glycan array binding signal (z-score),[25],-0.273
same,glycan array binding signal (z-score),[26],-0.367
same,glycan array binding signal (z-score),[27],-0.272
same,glycan array binding signal (z-score),[28],-0.231
same,glycan array binding signal (z-score),[29],0.003
same,glycan array binding signal (z-score),[30],0.406
same,glycan array binding signal (z-score),[31],-0.27
same,glycan array binding signal (z-score),[32],-0.256
same,glycan array binding signal (z-score),[33],0.029
same,glycan array binding signal (z-score),[34],-0.223
same,glycan array binding signal (z-score),[35],-0.26
same,glycan array binding signal (z-score),[36],-0.168
same,glycan array binding signal (z-score),[37],-0.22
same,glycan array binding signal (z-score),[38],-0.237
same,glycan array binding signal (z-score),[39],-0.26
same,glycan array binding signal (z-score),[40],-0.161
same,glycan array binding signal (z-score),[41],0.157
same,glycan array binding signal (z-score),[42],-0.278
same,glycan array binding signal (z-score),[43],-0.2
same,glycan array binding signal (z-score),[44],-0.22
same,glycan array binding signal (z-score),[45],-0.231
